# This is one part of the list.
# B1: PhoQ; a variant is named by its letters at X, in order, P23837 (parent)
# chain: MKKLLRLFFPLSLRVRFLLATAAVVLVLSLAYGMVALIGYSVSFDKTTFRLLRGESNLFYTLAKWENNKLHVELPENIDKQSPTMTLIYDENGQLLWAQRDVPWLMKMIQPDWLKSNGFHEIEADVNDTSLLLSGDHSIQQQLQEVREDDDDAEMTHSVAVNVYPATSRMPKLTIVVVDTIPVELKSSYMVWSWFIYVLSANLLLVIPLLWVAAWWSLRPIEALAKEVRELEEHNRELLNPATTRELTSLVRNLNRLLKSERERYDKYRTTLTDLTHSLKTPLXXLQXXLRSLRSEKMSVSDAEPVMLEQISRISQQIGYYLHRASMRGGTLLSRELHPVAPLLDNLTSALNKVYQRKGVNISLDISPEISFVGEQNDFVEVMGNVLDNACKYCLEFVEISARQTDEHLYIVVEDDGPGIPLSKREVIFDRGQRVDTLRPGQGVGLAVAREITEQYEGKIVAGESMLGGARMEVIFGRQHSAPKDE
# Variants of: B1
# Assay: enrichment ratio after two sorts for PhoP signalling (ratio (wild type AVST 3.29)); higher = more functional
# Conditions: with PhoP (E. coli)
row,Variant,enrichment ratio
1,WFPV,≤ 0.25
2,ERES,≤ 0.25
3,ACKK,≤ 0.25
4,KFYK,≤ 0.25
5,PWHW,≤ 0.25
6,DLSG,≤ 0.25
7,YHLC,≤ 0.25
8,GNDI,≤ 0.25
9,AMNF,≤ 0.25
10,HQLW,≤ 0.25
11,WINR,≤ 0.25
12,VAFS,≤ 0.25
13,QMIQ,≤ 0.25
14,AECF,2.16
15,QVLQ,≤ 0.25
16,RFSY,≤ 0.25
17,YTNN,≤ 0.25
18,IMQV,≤ 0.25
19,SMTE,1.78
20,WFRD,≤ 0.25
21,SGVR,≤ 0.25
22,GKVN,≤ 0.25
23,HYFC,≤ 0.25
24,GHKM,≤ 0.25
25,ASWH,≤ 0.25
26,VKLC,≤ 0.25

row,Variant,enrichment ratio
1,VQLT,≤ 0.25
2,AIQL,11.7
3,FQCS,≤ 0.25
4,GPKR,≤ 0.25
5,WHWI,≤ 0.25
6,IKHR,≤ 0.25
7,VLRY,≤ 0.25
8,VAQI,≤ 0.25
9,KECR,≤ 0.25
10,PMLQ,≤ 0.25
11,INRV,≤ 0.25
12,DLDP,≤ 0.25
13,VERY,≤ 0.25
14,HITY,≤ 0.25
15,DYNV,≤ 0.25
16,ADWS,≤ 0.25
17,IDRL,≤ 0.25
18,FSGI,≤ 0.25
19,TKEL,≤ 0.25
20,SASN,7.84
21,DCMA,≤ 0.25
22,DPII,≤ 0.25
23,GDMK,≤ 0.25
24,DIKV,≤ 0.25
25,YGPN,≤ 0.25
26,WCNF,≤ 0.25

row,Variant,enrichment ratio
1,HAKM,≤ 0.25
2,DDIY,≤ 0.25
3,YTIF,≤ 0.25
4,FIKF,≤ 0.25
5,KQKI,≤ 0.25
6,MLCL,8.17
7,RHVW,≤ 0.25
8,DFMV,≤ 0.25
9,SFGY,≤ 0.25
10,HWCM,≤ 0.25
11,FIFQ,≤ 0.25
12,SSLV,16.8
13,DYSI,≤ 0.25
14,SCVV,4.84
15,QSCG,≤ 0.25
16,ETGM,≤ 0.25
17,ERMF,≤ 0.25
18,HGGG,≤ 0.25
19,MGYY,9.39
20,PGQQ,≤ 0.25
21,AKLL,14.3
22,NNYM,≤ 0.25
23,SRTY,≤ 0.25
24,NTKP,≤ 0.25

# — a collection of fitness landscapes (doi:10.1126/science.1257360)
